The source of these data is the supplement of paper PMC4967469.

The IC50 comes from the fitted curve, where viability falls to half of the control; fits outside the tested doses are given as limits. The AUC spans the tested range (256-fold, ending at the top dose) of the same fit; it is 1 without any effect and falls as sensitivity rises. The top dose, if marked as inferred, comes from the curve model; the source does not state it.

Holding throughout (test): Viability of human cancer cell lines after 72 h of drug (GDSC screen)
Compound in assay [1]: N#Cc1c(C2CCNCC2)cc(-c2c(O)cccc2OCC2CC2)nc1N [ACHP (KIN001-260)]
The note with it: top dose 20 µM; top dose inferred. As for the experimental part:
(§1)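 Human cancer cell lines in 384-well plates, medium with 10% serum, drug for 72 h over a 256-fold dose range (nine 2-fold or five 4-fold steps up to the top dose). Adherent lines were fixed and stained with the nucleic acid dye Syto60, suspension lines read with resazurin; signal relative to control wells, capped at 0 and 100%. One two-parameter sigmoid per drug and line, fitted in a mixed model over all curves with the slope shared within a line.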

Compound in assay [2]: CCc1cc2c(cc1N1CCC(N3CCOCC3)CC1)C(C)(C)c1[nH]c3cc(C#N)ccc3c1C2=O [CH5424802]
The note with it: top dose 5.12 µM; top dose inferred. The procedure: as §1

Compound in assay [3]: CCOc1cc(N2CCC(O)CC2)ccc1Nc1ncc2c(n1)N(C)c1ccccc1C(=O)N2C [XMD8-92]
The note with it: top dose 10 µM; top dose inferred. As for the experimental part:
as §1

Compound in assay [4]: CC(C)(C)OC(=O)Nc1ccc(-c2cc(C(=O)NCCCCCCC(=O)NO)no2)cc1 [CAY10603]
The note with it: top dose 20 µM; top dose inferred. The procedure:
as §1

As a reminder, the IC50 is the concentration that gives 50% inhibition.

As to HSC-39 (stomach, suspension), the AUC was determined as 0.989 in assay [1], 0.849 in assay [2] and 0.948 in assay [3]. Also, the IC50 is greater than 20 µM in assay [1], 3.06 µM in assay [2] and greater than 10 µM in assay [3].

Take “IST-SL2 (small cell lung carcinoma, suspension)”: the AUC in assay [4] was found to be 0.986; in assay [2], 0.977; in assay [3] it was 0.984. Moreover, the IC50 in assay [4] is greater than 20 µM; in assay [2], greater than 5.12 µM; in assay [3], greater than 10 µM.

For the cell line JHU-029 (head and neck, adherent), in assay [3], the AUC is 0.94 and the IC50 was greater than 10 µM.

Consider Jurkat (T-cell leukaemia, suspension), for which, in assay [3], the AUC was found to be 0.919 and the half-inhibitory concentration (IC50) was greater than 10 µM.

Consider KATOIII (stomach, semi-adherent), for which, in assay [3], the AUC came to 0.979 and the half-inhibitory concentration (IC50) is greater than 10 µM.

On to KELLY (neuroblastoma, adherent), for which the AUC in assay [1] was 0.861; in assay [4], 0.321; in assay [3], 0.98. Further, the results for the IC50 in assay [1], in assay [4] and in assay [3] were 14.5 µM, 0.417 µM and greater than 10 µM, respectively.

For “LB647-SCLC (small cell lung carcinoma, semi-adherent)”, in assay [4], the AUC worked out at 0.886 and the IC50 was greater than 20 µM. In assay [3], the AUC came out at 0.931 and the IC50 was greater than 10 µM.

As to “LU-65 (large cell lung carcinoma, suspension)”, the AUC in assay [1] turned out to be 0.96; in assay [4] it was 0.607; in assay [3], 0.978. For the same cell line, the values for the IC50 in assay [1], in assay [4] and in assay [3] were greater than 20 µM, 2.6 µM and greater than 10 µM, respectively.

As for MKN7 (stomach, adherent), in assay [3], the AUC was 0.981 and the IC50 is greater than 10 µM.

For the cell line NB1 (neuroblastoma, semi-adherent), the AUC in assay [1] is 0.913; in assay [4], 0.76; in assay [3], 0.872. The IC50 was greater than 20 µM in assay [1], 7.7 µM in assay [4] and greater than 10 µM in assay [3].

Take NB10 (neuroblastoma, adherent): the AUC in assay [1] turned out to be 0.971; in assay [2], 0.986; in assay [3], 0.941. The IC50 in assay [1] was greater than 20 µM; in assay [2] it was greater than 5.12 µM; in assay [3] it was greater than 10 µM.

NB14 (neuroblastoma, adherent): the values for the AUC in assay [1], in assay [2] and in assay [3] were 0.895, 0.971 and 0.925, respectively. Moreover, the IC50 in assay [1] was greater than 20 µM; in assay [2], greater than 5.12 µM; in assay [3], greater than 10 µM.

Regarding NCC010 (kidney, adherent), in assay [3], the AUC came out at 0.964 and the IC50 is greater than 10 µM.

For “NCI-H508 (large intestine, semi-adherent)”, in assay [3], the AUC came out at 0.864 and the IC50 was greater than 10 µM.

As for NCI-H929 (myeloma, suspension), in assay [3], the AUC turned out to be 0.758 and the IC50 is 3.01 µM.

Consider “NCI-H2066 (small cell lung carcinoma, adherent)”, for which, in assay [3], the AUC was 0.968 and the IC50 is greater than 10 µM.

On to NCI-N87 (stomach, adherent), for which, in assay [3], the AUC was found to be 0.924 and the IC50 is greater than 10 µM.

OCI-LY7 (B-cell lymphoma, suspension): in assay [3], the AUC was determined as 0.97 and the IC50 was greater than 10 µM.

Consider PWR-1E (prostate, adherent), for which, in assay [3], the AUC is 0.984 and the IC50 is greater than 10 µM.

Take SCC90 (head and neck, adherent): in assay [3], the AUC came out at 0.914 and the IC50 is greater than 10 µM.

Turning to SK-GT-2 (stomach, adherent), in assay [3], the AUC amounted to 0.886 and the IC50 was greater than 10 µM.

SK-N-AS (neuroblastoma, adherent): the AUC in assay [1] worked out at 0.984; in assay [4] it was 0.358; in assay [3] it was 0.904. Also, the half-maximal inhibitory concentration (IC50) in assay [1] was greater than 20 µM; in assay [4], 0.476 µM; in assay [3], greater than 10 µM.

As for SK-N-SH (neuroblastoma, adherent), the AUC worked out at 0.959 in assay [1], 0.382 in assay [4] and 0.884 in assay [3]. Moreover, the values for the concentration for half-maximal inhibition (IC50) in assay [1], in assay [4] and in assay [3] were greater than 20 µM, 0.595 µM and greater than 10 µM, respectively.

Regarding “SKM-1 (haematopoietic neoplasm, suspension)”, in assay [3], the AUC came to 0.784 and the IC50 was determined as 4.71 µM.

Take SR (lymphoid neoplasm, suspension): the results for the AUC in assay [1], in assay [4] and in assay [3] were 0.702, 0.062 and 0.767, respectively. In addition, the IC50 in assay [1] is 4.33 µM; in assay [4], less than 0.0781 µM; in assay [3], 3.37 µM.

On to STS-0421 (soft tissue, adherent), for which, in assay [3], the AUC turned out to be 0.884 and the IC50 was greater than 10 µM.
